# From the supplement of paper PMC3334620
# The full ranking holds about 33,000 sequences; the median of “E-score (-0.5 to 0.5)” is about -0.053, and the highest 2% start at about 0.37. The list shows a part of the results.
# Molecular target: Hap1 (UniProt P0CE41)
# Experiment: PBM E-score (8-mer binding enrichment) (E-score (-0.5 to 0.5)); higher = stronger / more preferred TF binding; most listed sequences are background and not binding sites
# Details: protein concentration: 200 nM; construct: GST-DNA-binding domain
# Experimental: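 Universal 'all 10-mer' protein binding microarrays (Agilent AMADID 015681) probed with GST-tagged S. cerevisiae TFs (full-length or DBD) made by in vitro transcription/translation (PURExpress), about 100-200 nM. Bound TF was detected with fluorescent anti-GST. Each ungapped 8-mer (which stands for itself and its reverse complement) is scored by the PBM enrichment score (E-score), a modified Wilcoxon-Mann-Whitney statistic from -0.5 to +0.5, computed with the Universal PBM Analysis Suite. Scale: above 0.35 generally sequence-specific binding.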
# Chain of UniProt P0CE41 (P0CE41 whole entry): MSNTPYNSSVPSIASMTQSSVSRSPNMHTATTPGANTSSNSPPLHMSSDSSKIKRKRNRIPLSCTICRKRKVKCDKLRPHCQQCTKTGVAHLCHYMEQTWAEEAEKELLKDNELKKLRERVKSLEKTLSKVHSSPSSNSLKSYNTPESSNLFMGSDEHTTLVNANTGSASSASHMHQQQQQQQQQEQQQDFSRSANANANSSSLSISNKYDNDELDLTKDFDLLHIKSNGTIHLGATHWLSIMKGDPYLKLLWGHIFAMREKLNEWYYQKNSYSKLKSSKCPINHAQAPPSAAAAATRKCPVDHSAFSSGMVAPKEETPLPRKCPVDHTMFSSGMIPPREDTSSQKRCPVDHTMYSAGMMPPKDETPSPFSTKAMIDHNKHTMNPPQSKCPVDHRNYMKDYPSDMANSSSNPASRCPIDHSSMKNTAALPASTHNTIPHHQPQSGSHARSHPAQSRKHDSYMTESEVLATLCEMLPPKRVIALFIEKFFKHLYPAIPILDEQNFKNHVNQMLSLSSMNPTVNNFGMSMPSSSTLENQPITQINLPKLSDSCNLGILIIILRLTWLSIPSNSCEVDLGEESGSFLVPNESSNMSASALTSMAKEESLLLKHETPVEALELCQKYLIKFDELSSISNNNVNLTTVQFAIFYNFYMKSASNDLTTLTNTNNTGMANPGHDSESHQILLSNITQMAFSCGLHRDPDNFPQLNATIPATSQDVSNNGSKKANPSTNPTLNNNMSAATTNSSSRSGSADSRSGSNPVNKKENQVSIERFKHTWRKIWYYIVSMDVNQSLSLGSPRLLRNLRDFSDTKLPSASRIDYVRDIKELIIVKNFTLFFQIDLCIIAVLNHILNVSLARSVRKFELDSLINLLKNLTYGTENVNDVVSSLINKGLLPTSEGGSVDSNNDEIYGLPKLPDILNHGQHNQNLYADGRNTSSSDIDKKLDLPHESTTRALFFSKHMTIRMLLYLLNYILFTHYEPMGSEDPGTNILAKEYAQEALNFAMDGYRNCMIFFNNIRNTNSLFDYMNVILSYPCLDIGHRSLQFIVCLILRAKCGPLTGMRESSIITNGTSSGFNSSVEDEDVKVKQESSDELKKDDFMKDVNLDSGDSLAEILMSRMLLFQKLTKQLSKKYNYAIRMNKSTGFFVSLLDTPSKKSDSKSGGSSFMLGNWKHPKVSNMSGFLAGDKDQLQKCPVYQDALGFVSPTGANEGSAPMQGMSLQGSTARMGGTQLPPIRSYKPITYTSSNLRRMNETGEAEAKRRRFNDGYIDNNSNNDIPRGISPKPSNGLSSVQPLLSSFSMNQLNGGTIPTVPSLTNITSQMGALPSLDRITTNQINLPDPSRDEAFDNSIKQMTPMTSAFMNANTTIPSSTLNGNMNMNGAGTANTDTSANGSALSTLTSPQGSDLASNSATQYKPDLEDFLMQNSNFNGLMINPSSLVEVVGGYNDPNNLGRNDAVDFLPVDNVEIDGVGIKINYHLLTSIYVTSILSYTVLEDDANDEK
row,Sequence,PBM E-score
1,TAGGGATA,-0.0988
2,GAAGCCGA,0.308
3,CGGCCCAC,0.114
4,GGCATCGA,-0.206
5,CCCTCCGC,0.036
6,AATACACA,-0.178
7,CCTGTTAA,-0.164
8,ATAGAACA,-0.113
9,AAAGGTCT,-0.0454
10,AGAGTGTA,-0.192
11,CGTCACTA,0.0856
12,CCAATCAG,-0.277
13,AGCGGCAG,-0.016
14,CCGTGTTA,0.0303
15,ACCTTTAG,-0.0283
16,ACTAAGGC,-0.0482
17,ATGTACTA,-0.14
18,GTAGCGGA,0.342
19,CGTCGGGA,0.203
20,CTGGTCGC,-0.00987
21,ATTGGCAA,-0.122
22,ACGCGGAT,0.18
23,ATTTCCCG,0.301
24,TAGAGGAA,-0.183
25,ATCACGCA,-0.12

row,Sequence,PBM E-score
1,AAAGCGCT,0.123
2,AACTGTGT,-0.00838
3,GCTTGACA,-0.139
4,AGCAAGCA,-0.307
5,TCCATGAA,0.0122
6,CGAGCAAC,0.0444
7,GGTTACCA,0.0587
8,ACGGCCAT,0.078
9,GCCCCCGC,0.0792
10,GACGCTGA,-0.0921
11,TCACGTAA,-0.306
12,GTCGATTA,-0.0762
13,CGGCCAAA,0.191
14,ATTGTTAA,-0.12
15,CACCGCTA,0.139
16,CTGTTAAG,-0.143
17,AACGTAAT,-0.248
18,AGGCTCGC,0.142
19,CGAAGGAA,-0.148
20,ATCGGAGC,0.396
21,ATAAGGGA,-0.105
22,ATGTTAAT,-0.0735
23,GAGGGACA,-0.182
24,ATTCTAAA,0.0225
25,CCAGCCGC,0.181

row,Sequence,PBM E-score
1,AGATTAAA,0.0664
2,CCATTGAC,-0.207
3,TCCGTTCA,0.169
4,AGAGTACG,-0.0895
5,AAATGGCA,-0.0283
6,GTAGTATA,0.0209
7,AAGGCTTA,-0.264
8,CATGCTCG,-0.161
9,CAAAGGGC,-0.0894
10,ATGGGACG,0.00065
11,ATTACCTG,-0.0504
12,CCGCAGCA,0.0447
13,CTTTTAAA,0.0478
14,AAGGCCGT,0.212
15,AGTGTTAC,0.0606
16,AGGCGCCG,0.0638
17,ACCGCATG,-0.00118
18,ACGCTTGA,-0.152
19,CTAGAGTA,-0.173
20,ATCAATAG,-0.126
21,AACCCTTC,-0.0491
22,CTCCCTCA,-0.255
23,AATTCGTC,-0.103
24,AAATGGGG,-0.186
25,ATAGGACA,-0.247

row,Sequence,PBM E-score
1,CCACGTTA,-0.207
2,ACTATCCA,-0.0344
3,CGCGCAAC,0.0444
4,ATGGACCA,-0.194
5,AATCTAAT,-0.06
6,CGGCGGAA,0.396
7,ATCCGTGC,0.169
8,GTGTGTTA,-0.216
9,GAGGACCA,-0.123
10,TATTTGGA,-0.215
11,GGCTATGA,-0.0592
12,CATAGGAA,-0.189
13,CCCAGACA,-0.136
14,AGTCCTCC,-0.0508
15,CCACGAGA,-0.13
16,GCACTGAC,-0.0453
17,GCCCTGGA,-0.0261
18,CCCGATGC,0.263
19,ACACAAAC,-0.0187
20,ACACCAGT,-0.369
21,AGAACCCA,-0.335
22,GAACTCAC,-0.157
23,CTTGAAGC,-0.0989
24,ATAGGCGC,0.0692
25,CCCCGTCA,0.091

row,Sequence,PBM E-score
1,ACGTATAA,-0.121
2,ACCCCTAG,-0.372
3,ATTCCAGC,0.0839
4,AGTCTTCC,-0.0885
5,CGGATGCA,0.234
6,GGTGAGAC,-0.117
7,GAATTTGC,0.14
8,ACTAAAGT,-0.233
9,AGGAAAGC,-0.0721
10,CGACAATC,0.0677
11,CTACGAAA,-0.202
12,CATAAAGA,-0.199
13,AGCACCAC,-0.238
14,TCAGTACA,-0.245
15,GCCGTGCC,0.177
16,CTCTGACA,-0.112
17,AATACCGT,0.252
18,ATGTTCCC,-0.0217
19,AACTGCAA,-0.174
20,CACCGTGC,-0.0755
21,CCGCGGAA,0.317
22,CCCGGACC,0.361
23,GGCAACGA,0.0544
24,ACGATACG,-0.263
25,CGGTCTCC,0.297

row,Sequence,PBM E-score
1,CGAAGGGA,0.0478
2,CCCGACCG,0.379
3,CTAGTCCA,-0.0856
4,GAATCGGA,0.366
5,AGTTTGAT,0.00106
6,CAACCCCA,-0.0735
7,CAAAGTGA,-0.0346
8,CAGACACC,-0.08
9,CCAAACCA,-0.124
10,GGCGCACC,0.107
11,AGACGTAT,-0.0652
12,AGTGATCA,-0.103
13,GTTATTAA,0.145
14,AACTGCAG,-0.277
15,TAGGATCA,-0.131
16,AACGCGAG,-0.0745
17,GCTGCAGA,-0.161
18,GACACTTA,-0.119
19,ATGTCAAA,-0.0933
20,AAACACTT,-0.0452
21,GCCCCGGA,0.391
22,GCAACCCA,-0.304
23,ACACGCAA,-0.12
24,CGGGTCTA,0.288
25,AGTAGTGG,-0.0819

row,Sequence,PBM E-score
1,ACTGACCC,0.185
2,AGGCGGGC,0.0317
3,ACATGTCA,-0.224
4,AATTAGAA,-0.0308
5,ATAAAGGC,0.157
6,ACCCGTAC,0.0493
7,AGAACTCA,-0.157
8,AGATGGAT,-0.176
9,AGTCGTTC,-0.247
10,ACTCAAAA,-0.137
11,CACCTCGA,-0.0683
12,CCCAGGTC,-0.325
13,ATTCTTAC,0.0171
14,CCTGCGCC,-0.097
15,ATTAGAGG,-0.13
16,AAAACTCG,0.0961
17,TCACTGAA,0.0202
18,CATCTCTC,0.0672
19,CCCCAGAC,-0.159
20,ACGCAACG,0.0792
21,ATATAGAC,-0.105
22,CACCGTAA,0.0159
23,ATGGAGAA,0.0808
24,AGTCCGAC,0.36
25,AGAACGGA,0.168

row,Sequence,PBM E-score
1,GGAAATAC,0.343
2,AGCGTTAC,-0.204
3,CCTCGACA,-0.324
4,CTGTCAGA,-0.203
5,CTACAGTA,-0.196
6,CTGCAATC,-0.034
7,TAAGATGA,-0.2
8,ATCCGTAG,0.231
9,GACAATAC,-0.00034
10,CGAGAAAA,0.0489
11,CTAATCGC,0.14
12,GTGAGGTA,-0.0932
13,CAGCCACC,0.0173
14,AGTAATAT,0.0727
15,CTCAGACC,-0.0944
16,CACAAAAG,0.0205
17,CAGGGCTC,-0.246
18,TATGAACA,-0.26
19,GCGAGGCA,0.191
20,AAGACGCT,-0.234
21,ATTTAATA,0.0927
22,AAATGGAA,-0.124
23,GCGCTACC,0.0675
24,AAGAAGCA,-0.0174
25,TTATCAAA,-0.126

row,Sequence,PBM E-score
1,ACTCGAAT,-0.258
2,CGTAGCGA,0.142
3,AGATTATA,-0.0616
4,ATTCTCCG,0.394
5,AAACACGA,-0.061
6,ATTTTGTA,-0.0074
7,CACACGAG,-0.34
8,TCAGCGAA,-0.211
9,CAGCTTCA,-0.112
10,ATTGCGGA,0.242
11,CCGCAAGG,0.203
12,CTAACGCA,0.0325
13,GAGTCCAC,-0.0537
14,GATGGCAC,0.0991
15,AGTCTGAC,-0.278
16,AAAACTGA,-0.0492
17,GGTGGGTA,0.0278
18,CGCGACCA,0.189
19,CACGATTA,0.0453
